Reference: PubChem BioAssay AID2147 (National Center for Advancing Translational Sciences (NCATS), 2009)
The whole screen tested about 230,000 compounds, of which about 3,600 (1.6%) were called active. The shares of active, inactive and inconclusive entries below differ from those in the screen. Calls come from the whole dose curve; as a rule, active = well fitted inhibition curve with a large enough effect (not every such curve was filed as active); inconclusive = small, poorly fitted or top-dose-only effect, or another doubt; inactive = no such curve, though single readings can be large or run the other way. Potencies of inconclusive entries are doubtful fits and often do not repeat.

molecular target: Lysine-specific demethylase 4E (Homo sapiens) (UniProt B2RXH2); assay: qHTS Assay for Inhibitors of Human Jumonji Domain Containing 2E (JMJD2E); conditions: JMJD2E catalytic domain, FDH-coupled NADH fluorescence (FDH is formaldehyde dehydrogenase); series mostly up to 57.1 µM
UniProt B2RXH2, sequence (B2RXH2 whole entry, looked up, the tested form may be a part): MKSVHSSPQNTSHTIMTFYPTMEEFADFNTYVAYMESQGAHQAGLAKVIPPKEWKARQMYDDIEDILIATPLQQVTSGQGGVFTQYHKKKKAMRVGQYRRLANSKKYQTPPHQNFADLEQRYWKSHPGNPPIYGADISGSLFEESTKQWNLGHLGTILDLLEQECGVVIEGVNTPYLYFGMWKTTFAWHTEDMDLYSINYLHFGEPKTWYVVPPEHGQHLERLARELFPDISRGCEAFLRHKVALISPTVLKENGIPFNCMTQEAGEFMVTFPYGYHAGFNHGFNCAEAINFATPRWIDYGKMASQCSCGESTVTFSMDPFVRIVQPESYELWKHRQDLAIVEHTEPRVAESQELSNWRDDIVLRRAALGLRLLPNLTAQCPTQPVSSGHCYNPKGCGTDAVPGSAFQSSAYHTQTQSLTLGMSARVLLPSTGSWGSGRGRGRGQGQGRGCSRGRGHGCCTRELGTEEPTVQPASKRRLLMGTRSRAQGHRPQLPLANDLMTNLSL
Note: nearly all actives have a fitted effect of over 50% in size.
Potency is the fitted concentration of half-maximal effect; tags give direction and shape of the fitted curve.

Compound	Potency
CCOC(=O)c1ccc(NC(=O)CSc2nnc(CNc3ccc(C)cc3)n2C)cc1	inactive
COc1cc(/C=N/NC(=O)c2ccncc2)ccc1Oc1ccc([N+](=O)[O-])cn1	inconclusive: 39.8 µM [inhibitor, single point]
COc1cc(/C=N/NC(=O)c2cc(-c3cccs3)nc3ccccc23)ccc1O	inconclusive: 35.5 µM [inhibitor, single point]
CCOc1ccc(CC(=O)C2C(=O)CC(C)(C)CC2=O)cc1OCC	inconclusive: 39.8 µM [inhibitor, single point]
N=c1c(S(=O)(=O)c2ccccc2)cc2c(=O)n3ccccc3nc2n1Cc1ccco1	inconclusive: 12.6 µM [inhibitor, partial curve]
O=c1[nH]c2ccc(F)cc2[nH]c1=O	inconclusive: 12.6 µM [inhibitor, partial curve]
O=C(CSc1nc2cc(Cl)ccc2s1)NC(=O)NCc1ccco1	inactive
CCOC(=O)C1(Cc2ccccc2C(F)(F)F)CCN(C(C)CCn2cccn2)CC1 (centres undefined)	inconclusive: 31.6 µM [inhibitor, partial curve]
CC(=O)NC(C)C(=O)OCC(=O)c1ccc(-c2ccccc2)cc1 (centres undefined)	inconclusive: 22.4 µM [inhibitor, single point]
COc1cccc2c(=O)cc(C)n(CC(=O)Nc3cccc(C)c3)c12	inconclusive: 35.5 µM [inhibitor, partial curve]
O=C(COC(=O)c1ccccc1NC(=O)c1ccco1)Nc1ccc2c(c1)OC(F)(F)O2	inconclusive: 35.5 µM [inhibitor, single point]
O=C(NCC1CCCO1)C(c1ccc(F)cc1)N(CC1CCCO1)C(=O)c1ccc(-c2ccccc2)[nH]1 (centres undefined)	inactive
N#Cc1c(NC(=O)c2cnccn2)sc2c1CCCC2	inconclusive: 20 µM [inhibitor, partial curve]
CC(C)(C)c1ccc(-c2nc(C#N)c(NCc3cccnc3)o2)cc1	inconclusive: 31.6 µM [inhibitor, partial curve]
O=C(O)C1CCCCC1C(=O)Nc1ccccc1Nc1ccccc1 (centres undefined)	inconclusive: 39.8 µM [inhibitor, single point]
Cc1ccc2c(c1)c1c(n2CC(O)CN2CCC(C)CC2)CCCC1 (centres undefined)	inconclusive: 28.2 µM [inhibitor, single point]
Cc1n[nH]c(C)c1C(=O)CC1(O)C(=O)N(Cc2ccccc2)c2ccc(Br)cc21 (centres undefined)	inactive
C=CCn1c(CCC(=O)O)ccc1-c1ccccc1	inconclusive: 20 µM [inhibitor, partial curve]
COc1ccc2c(c1)c(CC(=O)O)c(C)n2C(=O)c1ccc(Cl)cc1	inconclusive: 10 µM [inhibitor, partial curve]
COc1ccc(C(=O)/C(C#N)=N/Nc2ccccc2[N+](=O)[O-])cc1	inactive
COc1cc(/C=N/Nc2snc(SC)c2C#N)cc(OC)c1OC	inconclusive: 35.5 µM [inhibitor, single point]
COc1cc2c(=O)nc3n(c2cc1OC)C(c1ccccc1)N=C(N)N3 (centres undefined)	inconclusive: 31.6 µM [inhibitor, partial curve]

Compound	Potency
O=c1[nH]c(CSc2ccccc2)nc2c1oc1ccccc12	inactive
COc1ccc(-c2cn3c4c(sc3n2)CCCC4)cc1	inactive
C=CCn1c(=N)c(C(=O)NCCCOC)cc2c(=O)n3cccc(C)c3nc21	inconclusive: 28.2 µM [inhibitor, partial curve]
N#Cc1cccc(NC(=O)CSc2ccc3c4c(cccc24)C(=O)c2ccccc2-3)c1	inactive
O=C(CC1C(=O)NCCN1Cc1ccc(F)c(F)c1)NCCn1cccn1 (centres undefined)	inconclusive: 25.1 µM [inhibitor, single point]
Oc1cc(O)c2c(c1)O[C@H](c1ccc(O)c(O)c1)[C@H](O)C2	active: 11.2 µM
COc1ccc(C(=O)N2CCOC23CCN(c2ncccn2)CC3)cc1	inconclusive: 35.5 µM [inhibitor, single point]
Cc1ccc(-c2c3c(=O)n(C)c(=O)n(C)c3cn2-c2ccccc2O)cc1	inconclusive: 31.6 µM [inhibitor, partial curve]
Cc1ccc(C(=O)OCn2nnc3ccccc3c2=O)cc1[N+](=O)[O-]	inactive
CN(C)/C=N/c1ncc(C(=O)c2ccc(-c3ccccc3)cc2)s1	inconclusive: 35.5 µM [inhibitor, single point]
CC(=O)O[C@@]1(C(C)=O)CCC2C3C=C(C)C4=CC(=O)CCC4(C)C3CCC21C (some centres undefined)	inactive
COc1cccc(C(=O)/C=C/Nc2cc(C)ccc2O)c1	inconclusive: 39.8 µM [inhibitor, single point]
Cc1ccc(O)c(C(=O)c2cnc3onc(-c4ccc(F)cc4)c3c2)c1	inactive
COc1ccc(OC)c(/C=N/NC(=O)c2cc3c(OC)c(OC)ccc3[nH]2)c1	inconclusive: 39.8 µM [inhibitor, single point]
CCN(CC)S(=O)(=O)c1ccc(N2CCCC2)c(NC(=O)CC(C)(C)C)c1	inactive
Cc1ccccc1Cn1c(C)cc(C)c(C#N)c1=O	inconclusive: 11.2 µM [inhibitor, partial curve]
O=C(CCC(=O)N/N=C/c1ccccc1O)NCc1ccccc1	inconclusive: 25.1 µM [inhibitor, partial curve]
C1=C(CCNc2ncnc3c2cnn3-c2ccccc2)CCCC1	inconclusive: 25.1 µM [inhibitor, single point]
CC(=O)Oc1ccc2nc(CN3C(=O)c4ccc([N+](=O)[O-])cc4C3=O)oc(=O)c2c1	inconclusive: 14.1 µM [inhibitor, partial curve]
Cn1c(=O)c(=O)n(C)c2cc(S(=O)(=O)NCCN3CCN(c4ccccc4F)CC3)ccc21	inconclusive: 39.8 µM [inhibitor, single point]
COc1cccc(-c2nc(NCc3ccco3)c3ccccc3n2)c1O	inconclusive: 35.5 µM [inhibitor, single point]
CC(=O)Oc1ccc(NC(=O)CCC2CCCCC2)c(C(=O)O)c1	inconclusive: 31.6 µM [inhibitor, single point]
